The campaign covered roughly 110,000 compounds. About 230 (0.21%) showed an effect of 50% or more. Some of the results follow.
Molecular target: DPAP1 (Plasmodium falciparum, UniProt Q8IIJ9)
Assay: primary screen, percent inhibition; read by cleavage of a fluorogenic dipeptide substrate; higher = more effect of the substance
Set-up: species or system P. falciparum D10 trophozoite lysates; single well
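Also: 30 min substrate incubation versus DMSO and 10 µM JCP410 controls.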

Chain of DPAP1 (Q8IIJ9 whole entry, looked up): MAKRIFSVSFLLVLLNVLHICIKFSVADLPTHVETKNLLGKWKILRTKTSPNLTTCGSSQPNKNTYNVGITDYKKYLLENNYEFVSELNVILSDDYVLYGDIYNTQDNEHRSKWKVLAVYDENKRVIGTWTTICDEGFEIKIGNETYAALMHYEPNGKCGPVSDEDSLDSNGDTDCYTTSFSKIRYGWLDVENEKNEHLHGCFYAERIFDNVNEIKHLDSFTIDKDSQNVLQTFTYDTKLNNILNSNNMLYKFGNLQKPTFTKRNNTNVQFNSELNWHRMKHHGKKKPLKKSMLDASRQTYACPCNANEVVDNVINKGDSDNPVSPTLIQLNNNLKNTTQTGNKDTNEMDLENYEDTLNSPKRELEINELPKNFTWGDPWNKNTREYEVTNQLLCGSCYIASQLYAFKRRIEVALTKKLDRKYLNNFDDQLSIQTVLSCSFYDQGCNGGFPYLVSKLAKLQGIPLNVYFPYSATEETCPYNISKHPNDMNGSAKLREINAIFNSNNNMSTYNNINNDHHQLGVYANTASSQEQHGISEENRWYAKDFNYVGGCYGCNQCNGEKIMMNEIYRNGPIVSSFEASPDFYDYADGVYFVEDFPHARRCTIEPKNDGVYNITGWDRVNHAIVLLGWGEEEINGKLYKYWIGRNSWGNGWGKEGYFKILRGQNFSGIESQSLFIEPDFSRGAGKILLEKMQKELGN

Row | SMILES | % Inhibition @ 10 uM [%]
1 | CCCCCC1CC(=O)N(Cc2ccc(Cl)cc2)C(=O)N1 (stereo not shown) | -5.24
2 | O=C(O)c1ccccc1C(=O)c1ccc2c(c1)Cc1ccccc1-2 | 1.54
3 | O=C(Nc1ccc2ccccc2c1)N(Cc1ccccc1)c1ccccc1 | 3.9
4 | O=C1CC(c2ccc(Cl)cc2)NC(NC(=O)CCCOc2ccccc2)=N1 (stereo not shown) | -7.21
5 | CC1CC(C)CN(C(=O)Cn2c(-c3nonc3N)nc3ccccc32)C1 (stereo not shown) | -0.116
6 | N#Cc1c(C(F)(F)F)cc(-c2cccs2)nc1SCc1nc(N)nc(N2CCOCC2)n1 | 64.2
7 | CCN(CC)CCN(C)CCC(C)c1ccccc1 (stereo not shown) | -5.65
8 | O=C(O)C1C2C=CC(C2)C1C(=O)N1CCC(Cc2ccccc2)CC1 (stereo not shown) | -1.42
9 | CCc1nnc(NS(=O)(=O)c2ccc(NC(=O)c3ccccc3)cc2)s1 | 1.24
10 | CCCC1CCc2c(sc(NC(=O)OCC)c2C#N)C1 (stereo not shown) | 3.72
11 | CCCc1cc(NCCOCCO)n2c(nc3ccccc32)c1C#N | 0.131
12 | O=C(c1cccs1)C1CN2CCC1CC2 (stereo not shown) | 10.4
13 | CCOC(=O)N1CCC(/N=c2/c(-c3ccc(C)cc3)c(O)c2=O)CC1 | 1.69
14 | CCCN1CCN(C(=O)Cn2cccc2C(=O)c2ccccc2)CC1 | 1.15
15 | S=C1NCN(Cc2ccco2)CN1Cc1ccccc1 | -5.62
16 | Cn1cc(CCCC(=O)NCc2ccccc2)c2ccccc21 | 0.387
17 | O=C(Nc1cccc(C(=O)O)c1)/C(=C/c1ccccc1)NC(=O)c1cccc(Br)c1 | -1.64
18 | N#CCNC(=O)c1cc2nc(-c3ccco3)cc(C(F)(F)F)n2n1 | -2.22
19 | CCC/C(=N\CCc1c(C)[nH]c2ccc(C)cc12)C1=C(O)CC(C)(C)CC1=O | 1.03
20 | COc1ccc(CCC(O)C2(O)CCCCC2)cc1 (stereo not shown) | -0.305
21 | Nc1c(C(=O)Nc2ccc(F)cc2F)sc2nc(-c3cccs3)ccc12 | 0.727
22 | O=c1c(CN2CCc3ccccc3C2)coc2ccccc12 | 2.23
23 | O=C(COc1ccc(Cl)cc1Cl)Nc1ccccc1N1CCOCC1 | 2.22

Row | SMILES | % Inhibition @ 10 uM [%]
24 | CN1CCCC(CN2c3ccccc3Sc3ccccc32)C1 (stereo not shown) | -4.26
25 | CCc1ccc(C2CC(=O)NC3=C2C(=O)CC(c2cccs2)C3)cc1 (stereo not shown) | 1.97
26 | CC1CCN(C(=O)c2cc(Cl)cc(Cl)c2NC(=O)c2ccco2)CC1 | -2.22
27 | Cc1cc2[nH]c3c4ccccc4ncc3c2cc1C | 1.57
28 | CC(C)c1c(O)nc(SCCN(C)C)nc1O | -0.289
29 | CCN(CC)C(=O)CSc1nc(-c2ccc(C)cc2)nc2c1COC(C)(C)C2 | -4.02
30 | CCOc1ccc(NC(=O)c2ccc(N(Cc3ccccc3C)S(C)(=O)=O)cc2)cc1 | -3.29
31 | CN(CCc1ccccn1)C1CCSC1 (stereo not shown) | -3.27
32 | Cc1ncc(CO)c2c1Oc1nc(-c3ccccc3)nc(S)c1C2 | 22.5
33 | Cc1cc(C)nc(NS(=O)(=O)c2ccc(NC(=O)Nc3ccc(Cl)cc3)cc2)n1 | -2.27
34 | CCOC(=O)N1CCN(C(=O)C(NC(=O)c2ccc(CC)cc2)C(C)C)CC1 (stereo not shown) | -4.04
35 | COc1ccc(C2N[C@H](C(=O)O)CS2)cc1 (stereo partly shown) | -2.51
36 | O=C(O)c1ccc(NC(=O)C(c2ccccc2)c2ccccc2)cc1 | 5.77
37 | Cc1nn(-c2ccccc2)c2nc(C3CC3)cc(C(=O)NCc3ccccc3)c12 | 3.06
38 | CC1CCc2c(sc(N)c2C(=O)NC2CCCCC2)C1 (stereo not shown) | -5.34
39 | Cc1ccc(NC(=O)NC(C)(C)C)cc1 | -1.78
40 | CC(C(=O)NCc1cccnc1)n1c2ccccc2c2cnn(C)c(=O)c21 (stereo not shown) | -2
41 | CCCC(=O)/N=C1\SC2CS(=O)(=O)CC2N1Cc1ccccc1 (stereo not shown) | 2.21
42 | Cn1c(=O)c(-c2ccccc2)nc2ccccc21 | -3.65
43 | Nc1ccc(Br)c(NC(=O)c2ccccc2)c1 | 6.7
44 | O=C(Nc1noc2c1COc1ccccc1-2)NC1CCCCC1 | -0.255
45 | O=S(=O)(NCc1csc2c1CCCC2)c1ccc(-n2cnnn2)cc1 | 5.88
46 | CCOc1ccccc1C(=O)Nc1cccc(Cl)c1C | 3.8

Row | SMILES | % Inhibition @ 10 uM [%]
47 | CC(NC(=O)NC1CCCCC1)c1ccccc1 (stereo not shown) | -0.425
48 | COc1ccc(-c2nc3cc(C)ccn3c2NC(=O)C(C)C)cc1 | -4.23
49 | CCOc1ccc(CCNCc2c(C)[nH]c(C)c2C(=O)O)cc1 | -3.67
50 | COc1ccc(-c2nc(C(F)(F)F)c(OC)o2)cc1OC | -1.63
51 | NC(Cc1ccc(OC(F)(F)F)cc1)C(=O)O (stereo not shown) | -3.07
52 | CCOC(=O)Nc1ccc2c(c1)N(C(=O)CCN1CCN(CCO)CC1)c1ccccc1CC2 | -4.39
53 | CC(C)C1Nc2c(C(=O)O)cccc2C2C=CCC21 (stereo not shown) | -1.2
54 | CCN(CC)C(=O)/C=C/c1ccc(Cl)cc1 | 3
55 | O=[N+]([O-])c1cc(NCC2CCCCC2)ccc1Cl | 0.217
56 | CC(=O)Nc1ccc(NC(=O)C(C)Oc2ccc(C)cc2)cc1 (stereo not shown) | -5.13
57 | CN1CCC(N(C)c2ncnc3sc4c(c23)CCCC4)CC1 | 1.83
58 | CCC1CCc2c(sc(NC(=O)c3ccccc3)c2C(N)=O)C1 (stereo not shown) | 11.6
59 | Cc1ccc(-c2noc(CN(C)S(=O)(=O)c3ccc(C)cc3)n2)cc1 | 5.42
60 | CCc1ccc2[nH]c3nc(SC(C)C)nnc3c2c1 | 4.18
61 | CC(C)C[C@H](NC(=O)c1ccnc(N2CCCC2)c1)C(=O)NCC#N | -2.35
62 | CCn1cc(C(=O)O)c(=O)c2cnc(N3CCN(C(=S)NCc4ccccc4)CC3)nc21 | -3.23
63 | N#CC1=C(N)Oc2cc(N)ccc2C12C(=O)Nc1ccc(Br)cc12 (stereo not shown) | 2.13
64 | CCOC(=O)c1c(C)oc2nc(C)nc(NCCN(Cc3ccco3)C3CCCC3)c12 | 3.26
65 | Cc1cc(O)c(C2=NCCSC(c3cccc(Cl)c3Cl)C2)c(=O)o1 (stereo not shown) | -0.0372
66 | Cc1ccc(NC(=O)Cn2cnc3c2c(=O)n(C)c(=O)n3C)c(C)c1 | -2.17
67 | CCOc1cccc(C(=O)Nc2cccc(Cl)c2)c1 | -4.38

— paper PMC6919601, “Identification of Plasmodium dipeptidyl aminopeptidase allosteric inhibitors by high throughput screening” (PLoS ONE, 2019)
